Reference: PubChem BioAssay AID488969 (Vanderbilt High Throughput Screening Facility, 2010)
Over roughly 110,000 compounds, “z-score” has its median near -0.1; the highest 2% begin near 2. Some of the results follow.

target: Metabotropic glutamate receptor 8 (Rattus norvegicus) (UniProt P70579); experiment: mGluR8 Gi/Go-coupled signaling modulation – cell-based, rat, thallium flux, HTS, primary screen (AID 488969); conditions: HEK293 rat mGluR8, GIRK (G protein-gated inwardly rectifying potassium channel) thallium flux, FluoZin2; at 10 µM; stronger effect = higher value; submaximal glutamate (EC20) added with thallium
Chain of UniProt P70579 (P70579 whole entry, looked up): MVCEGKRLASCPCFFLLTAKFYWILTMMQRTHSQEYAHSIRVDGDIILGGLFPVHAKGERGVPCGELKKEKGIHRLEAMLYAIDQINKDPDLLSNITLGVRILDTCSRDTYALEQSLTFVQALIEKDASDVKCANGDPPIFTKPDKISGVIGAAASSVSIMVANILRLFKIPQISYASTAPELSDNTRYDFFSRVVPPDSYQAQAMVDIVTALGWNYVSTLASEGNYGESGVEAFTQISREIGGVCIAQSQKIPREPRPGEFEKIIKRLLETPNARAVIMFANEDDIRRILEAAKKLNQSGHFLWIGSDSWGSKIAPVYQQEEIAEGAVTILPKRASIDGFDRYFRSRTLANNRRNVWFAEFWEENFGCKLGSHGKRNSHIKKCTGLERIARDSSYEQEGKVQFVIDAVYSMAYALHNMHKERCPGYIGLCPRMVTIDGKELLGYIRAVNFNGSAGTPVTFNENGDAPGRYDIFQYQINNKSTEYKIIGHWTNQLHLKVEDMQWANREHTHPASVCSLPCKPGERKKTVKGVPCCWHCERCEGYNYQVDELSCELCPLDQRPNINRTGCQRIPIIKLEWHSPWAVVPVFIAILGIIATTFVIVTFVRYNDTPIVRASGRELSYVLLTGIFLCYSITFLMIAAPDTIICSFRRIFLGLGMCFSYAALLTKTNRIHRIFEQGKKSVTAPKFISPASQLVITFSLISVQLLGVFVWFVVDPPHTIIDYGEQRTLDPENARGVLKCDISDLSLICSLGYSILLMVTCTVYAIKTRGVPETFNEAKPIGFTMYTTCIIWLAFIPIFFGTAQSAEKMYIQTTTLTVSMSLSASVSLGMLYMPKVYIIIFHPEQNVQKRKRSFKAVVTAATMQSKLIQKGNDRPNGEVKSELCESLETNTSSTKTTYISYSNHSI

| SMILES | z-score |
| --- | --- |
| CC(=O)/C(C#N)=C1\NC(=O)C(Cc2ccccc2Cl)S1 (stereo unspecified) | -0.674 |
| Cc1c(C(=O)Nc2ccc(Cl)cc2)c2ccccn2c1C(=O)c1ccc([N+](=O)[O-])cc1 | -0.0709 |
| COc1ccccc1NS(=O)(=O)c1cc(NC(=O)c2ccc3ccccc3n2)ccc1Cl | 0.029 |
| Cc1ccc(S(=O)(=O)/C(C#N)=C/c2c(N3CC(C)OC(C)C3)nc3ccccn3c2=O)cc1 (stereo unspecified) | -0.347 |
| N#Cc1cc2cc3c(cc2nc1N1CCOCC1)OCO3 | -0.918 |
| Cc1ccc(S(=O)(=O)CCc2nc3ccccc3s2)cc1C | -0.169 |
| COc1ccc2[nH]c3c(NCc4ccco4)ncnc3c2c1 | -0.887 |
| COc1ccc(-c2cc(C(F)(F)F)nc(S(=O)(=O)CCC(=O)N3CCOCC3)n2)cc1 | -0.771 |
| COc1ccc(S(=O)(=O)NNC(=O)C2Cc3c(ccc4ccccc34)O2)cc1 (stereo unspecified) | 0.13 |
| Cc1cc2nc(C3CCN(Cc4nnnn4Cc4ccccc4)CC3)[nH]c2cc1C | -1.67 |
| c1ccc(C2C3=C(CCCC3)Nc3ncnn32)cc1 (stereo unspecified) | -0.438 |
| CCOC(=O)c1sc(Nc2nc3c(OC)cccc3s2)cc1C | -0.137 |
| Cc1ccc(SCCC(=O)NC(C)(C)C)cc1 | 0.0122 |
| COc1ccc(CN(CCC(c2ccc(F)cc2)C2CCOC(C)(C)C2)C(=O)c2ccco2)cc1 (stereo unspecified) | 0.164 |
| Cc1cc(C)cc(OCC(=O)Nc2ccccc2C(=O)NCc2ccco2)c1 | 0.274 |
| N#CCCn1cc(/C=N/O)c(-c2ccc(-c3ccccc3)cc2)n1 | 1.03 |

| SMILES | z-score |
| --- | --- |
| COc1ccccc1OCCCn1c(=O)oc2ccccc21 | -0.179 |
| CCOc1cccc(-c2nnc3sc(C4CCCCC4)nn23)c1 | 0.148 |
| CCOC(=O)c1c(C)n(C)c2ccc(OC)c(NS(=O)(=O)CC)c12 | 0.0365 |
| Cc1ccc(-c2nc3ccccc3s2)cc1NC(=O)c1cc(-n2cnnc2)ccc1Cl | -0.032 |
| COC(=O)c1nn(-c2ccccc2)c(Sc2ccc(Cl)cc2)c1/C=N/O | -0.169 |
| Cc1cc(C)c2c3c(sc2n1)C(=O)N(C)CC(=O)N3 | 0.459 |
| Cc1ccc(-c2nc(Nc3ccccc3)n[nH]2)cc1 | -0.123 |
| CCOC(=O)C1CCCN(c2cc(NCCCO)c([N+](=O)[O-])c3nonc23)C1 (stereo unspecified) | -0.307 |
| C=CCN(CC=C)CCOc1ccccc1F | -0.272 |
| CCOC(=O)c1cnc2c(-c3ccc(Cl)cc3)c(C)nn2c1N | -1.38 |
| CC(C)C(CC(=O)N1CCCCC1)C1CCOC(C)(C)C1 (stereo unspecified) | 0.287 |
| COc1ccccc1-c1cn[nH]c(=S)n1 | 0.189 |
| CC(=O)OCCSc1c(-c2ccccc2)c2cc(Cl)ccc2[nH]c1=O | -1.07 |
| CCOc1nc(NCCN2CCOCC2)nc(NC(C)C)n1 | -0.384 |
| O=S(=O)(NCc1cccnc1)c1ccc(Br)s1 | -0.234 |
